At least one read-out could not be matched to a standard name with certainty.
System: erythema of stripped skin (vasoconstriction)
Experiment: vasoconstriction test (topical efficacy), difference in degree of efficacy vs diflucortolone 21-valerate (DFV)
Format: in vivo, healthy test persons (human)
Conditions: 0.1 p.p.m. active agent, positive = more favorable than DFV
Protocol: The topical efficacy can be determined as follows using the vasoconstriction test.
The test was conducted on respectively eight healthy test persons of both sexes, who had not received any local corti costeroid treatment within the preceding two weeks. After the stratum corneum on the test persons' backs was removed down to the stratum lucidum (20-40 times application and tearing off of an adhesive film), respectively 0.1 g. of the preparations was applied to areas of a size of 4 cm^2 without protective dressing. To avoid the application of the identical preparation to identical skin areas, the application is done in a rotating fashion. The vasoconstriction is evaluated visually after 4 and 8 hours by the investigator in accordance with the following grades of effectiveness: 1=absolute fading; 2=minor residual erythema; 3=medium-grade erythema, reddening intensity in the central zone of stripped, untreated and undamaged skin; 4=erythema with minor fading; 5=no fading, or intensification of erythema.
The individual evaluations were averaged.
In each test series, diflucortolone 21-valerate (=6α,9α-difluoro-11β-hydroxy-16α-methyl-21-valeryloxy-1,4-pregnadiene-3,20-dione=DFV) is utilized as the reference compound.
The difference Δ of the average degrees of efficacy of DFV and of the test compound determined in the individual series of investigations is calculated in each case. Positive deviations Δ show a more favorable evaluation: negative deviations show a more unfavorable evaluation of the test compound as compared to DFV.
The tables set forth below list the observed test results obtained when treating the test persons with a preparation containing 0.1 p.p.m. of active agent.

Row | Compound | Vasoconstriction Test Δ After 4 h. (difference of average degrees of efficacy of DFV and test compound) | Vasoconstriction Test Δ After 8 h. (difference of average degrees of efficacy of DFV and test compound)
1 | CC(C)OCO[C@]1(C(=O)CO)CC[C@H]2[C@@H]3CCC4=CC(=O)CC[C@]4(C)[C@H]3[C@@H](O)C[C@@]21C [compound 5] | +0.9 | +0.5
2 | CCOCO[C@]1(C(=O)CO)CC[C@H]2[C@@H]3CCC4=CC(=O)CC[C@]4(C)[C@H]3[C@@H](O)C[C@@]21C [compound 3] | 0.0 | +0.7
3 | COCO[C@]1(C(=O)CO)CC[C@H]2[C@@H]3CCC4=CC(=O)C=C[C@]4(C)[C@H]3[C@@H](O)C[C@@]21C [compound 9] | -0.2 | -0.3
4 | CCCOCO[C@]1(C(=O)CO)CC[C@H]2[C@@H]3CCC4=CC(=O)CC[C@]4(C)[C@H]3[C@@H](O)C[C@@]21C [compound 4] | +0.4 | +0.4
5 | COCO[C@]1(C(=O)CO)CC[C@H]2[C@@H]3CCC4=CC(=O)CC[C@]4(C)[C@H]3[C@@H](O)C[C@@]21C [compound 2] | +0.3 | +0.7
6 | CCCC(=O)O[C@]1(C(=O)CO)CC[C@H]2[C@@H]3CCC4=CC(=O)CC[C@]4(C)[C@H]3[C@@H](O)C[C@@]21C [compound 1] | -0.2 | -0.3
7 | CCCCOCO[C@]1(C(=O)CO)CC[C@H]2[C@@H]3CCC4=CC(=O)CC[C@]4(C)[C@H]3[C@@H](O)C[C@@]21C [compound 6] | +0.9 | +0.6
8 | C[C@]12CCC(=O)C=C1CC[C@@H]1[C@@H]2[C@@H](O)C[C@@]2(C)[C@H]1CC[C@]2(OC1CCCCO1)C(=O)CO (some centres unmarked) [compound 7] | +0.8 | +0.6
9 | C[C@]12C=CC(=O)C=C1CC[C@@H]1[C@@H]2[C@@H](O)C[C@@]2(C)[C@H]1CC[C@]2(O)C(=O)CO [compound 8] | -0.9 | -0.8
10 | COCO[C@]1(C(=O)COC(C)=O)CC[C@H]2[C@@H]3CCC4=CC(=O)C=C[C@]4(C)[C@H]3[C@@H](O)C[C@@]21C [compound 10] | +0.7 | +0.4
